# Values joined by “and” are separate entries in the source; they are usually repeats but may differ in a detail not shown here. Equal values may be shown once. Screen size: about 270,000 compounds; about 5,800 (2.1%) were called active. The shares of active, inactive and inconclusive entries below differ from those in the screen. Calls follow the shape of the dose curve; as a rule, active = well fitted inhibition curve with a large enough effect; inconclusive = small, poorly fitted or top-dose-only effect; inactive = flat fitted curve, though single readings scatter. Potencies of inconclusive entries are doubtful fits and often do not repeat.
# Biological target: Microtubule-associated protein tau (Homo sapiens) (UniProt P10636)
# Assay: qHTS for Inhibitors of Tau Fibril Formation, Thioflavin T Binding; also: nearly all actives have a fitted effect of over 55% in size
# Conditions: recombinant tau K18 P301L (four-repeat tau fragment), heparin-induced fibrillization, ThT fluorescence; series mostly up to 57.4 µM; activity, negative = inhibition: at the top concentration
# Description: NIH Molecular Libraries Probe Production Network [MLPCN]
# NIH Chemical Genomics Center [NCGC]
# Assay Provider: Carlo Ballatore, University of Pennsylvania
# The microtubule-associated protein tau is an abundant protein in the axons of neurons that stabilizes microtubules. With its ability to modulate microtubule dynamics, tau contributes directly or indirectly, to key structural and regulatory cellular functions. Particularly important is the influence tau exerts on axonal transport, which allows signaling molecules, trophic factors and other essential cellular constituents to travel along the axons. Under pathological conditions, tau becomes sequestered into insoluble aggregates called neurofibrillary tangles. This phenomenon is believed to have pathological consequences by promoting axonal transport deficits that ultimately lead to synaptic dysfunction and neuronal loss. To identify inhibitors of tau aggregation, a heparin-induced tau fibril formation assay was used that employed a recombinantly expressed fragment of tau, K18 (Q242-E372), bearing a P301L mutation (Gustke et al. 1994; Hong et al. 1998). This assay monitors tau fibrillization by Thioflavin T (ThT) fluorescence.
# Gustke, N., B. Trinczek, et al. (1994). "Domains of tau protein and interactions with microtubules." Biochemistry 33(32): 9511-22.
# Hong, M., V. Zhukareva, et al. (1998).
# Li, W. and V. M. Lee (2006).
# von Bergen, M., S. Barghorn, et al. (2001). "Mutations of tau protein in frontotemporal dementia promote aggregation of paired helical filaments by enhancing local beta-structure." J Biol Chem 276(51): 48165-74.
# NCGC Assay Protocol Summary:
# For screening, 2 uL/well human K18 P301L (15 uM unlabeled and 0.24 uM Alexa 594-labeled tau, final concentrations) in reagent buffer (100 mM sodium acetate pH 7) was dispensed into black solid 1536-well plates (Grenier) using a solenoid-based dispenser. Following transfer of 23 nL compound or DMSO vehicle by a pin tool, 2 uL/well heparin (20 uM final concentration) in reagent buffer was added and the plate centrifuged 15 s at 1000 RPM. Plates were incubated 6 hr at 37 C and then 1 uL/well ThT (30 uM final concentration) was added. After a 1 hr ambient incubation, the plates were read by an Envision (Perkin Elmer) to monitor ThT fluorescence (450/8 nm excitation and 510/23 nm emission).
# Keywords: NIH Roadmap, MLPCN, MLI, MLSMR, NCGC, qHTS, tau, tauopathies, Alzheimer's disease, fibril, neurodegeneration, aggregation
# % is scaled to controls: 0 for no effect and ±100 for the full control effect; potency is read from the fitted curve at half-maximal effect; tags tell the direction and shape of the fitted curve.
# Sequence of UniProt P10636 (P10636 whole entry, looked up): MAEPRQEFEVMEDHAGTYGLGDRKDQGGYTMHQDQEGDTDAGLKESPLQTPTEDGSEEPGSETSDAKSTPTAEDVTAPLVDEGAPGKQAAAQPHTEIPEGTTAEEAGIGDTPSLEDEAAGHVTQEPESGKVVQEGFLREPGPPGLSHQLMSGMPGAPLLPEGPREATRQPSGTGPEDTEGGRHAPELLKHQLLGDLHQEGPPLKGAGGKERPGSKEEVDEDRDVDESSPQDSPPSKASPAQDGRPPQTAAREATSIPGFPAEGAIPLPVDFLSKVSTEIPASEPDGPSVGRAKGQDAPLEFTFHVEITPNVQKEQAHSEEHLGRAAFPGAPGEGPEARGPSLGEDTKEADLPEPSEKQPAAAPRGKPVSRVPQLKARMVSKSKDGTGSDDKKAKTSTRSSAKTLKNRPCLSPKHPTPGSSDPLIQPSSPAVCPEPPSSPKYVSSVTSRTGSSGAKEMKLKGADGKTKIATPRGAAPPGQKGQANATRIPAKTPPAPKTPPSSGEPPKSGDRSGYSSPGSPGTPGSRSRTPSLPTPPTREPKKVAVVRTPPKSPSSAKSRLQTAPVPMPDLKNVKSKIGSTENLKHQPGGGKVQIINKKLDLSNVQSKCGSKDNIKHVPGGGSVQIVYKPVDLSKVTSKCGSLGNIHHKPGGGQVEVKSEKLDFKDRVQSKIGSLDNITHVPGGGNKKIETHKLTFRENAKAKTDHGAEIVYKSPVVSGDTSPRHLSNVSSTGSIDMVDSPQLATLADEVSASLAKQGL
SMILES,Potency,"activity, negative = inhibition"
COc1ccc2[nH]c(C)c(CCN3CCC(=O)C(C)C3C)c2c1 (centres undefined),"inconclusive: 28.2 µM [inhibitor, partial curve]",–
CCC(=O)OC1CCC2C3CCC4=CC(=O)CC[C@@]4(C)C3CC[C@]12C (some centres undefined),"inconclusive: 3.55 µM [inhibitor, partial curve]",–
CSc1nnc([C@@H](N)Cc2c[nH]c3ccccc23)o1,–,inactive: -6.27%
Cc1ccc(Cl)cc1N1CCN(C(=O)C2CCN(Cc3nc(-c4ccc(Cl)cc4)oc3C)CC2)CC1,"inconclusive: 31.6 µM [inhibitor, single point]",–
O=C1NC(=O)C(=Cc2ccccc2Oc2ccc(F)cc2)C(=O)N1,"inconclusive: 2.82 µM [inhibitor, full curve]",–
COC(=O)C12CC3=CCC4C(=O)N(c5ccccc5)C(=O)C4C3Cc3ccccc3[C@@H]1CNC2=O (some centres undefined),–,inactive: -0.51%
CN1C(=O)C(=Cc2cc([N+](=O)[O-])ccc2N2CCCCC2)C(=O)N(C)C1=O,–,inactive: -11.1%
CCOC(=O)c1cc(-c2csc(COc3ccc(Cl)cc3)n2)on1,"inconclusive: 1.58 µM [inhibitor, full curve, poor fit]",–
COc1cc(/C=C2\C(=O)NC(=O)N(c3ccccc3)C2=O)cc(OC)c1OC,"inconclusive: 10 µM [inhibitor, partial curve]",–
c1cc2c(cc1C1OC[C@@H]3C(c4ccc5c(c4)OCO5)OCC13)OCO2 (some centres undefined),"inconclusive: 25.1 µM [inhibitor, partial curve, poor fit]",–
CCCCCCC[n+]1ccc(-c2cc[n+](CCCCCCC)cc2)cc1,inactive,–
CC1(CCl)CN1S(=O)(=O)c1ccccc1 (centres undefined),"inconclusive: 20 µM [inhibitor, partial curve]",–
CN1C(=O)NC(=O)/C(=C\C=C\c2ccccc2[N+](=O)[O-])C1=O,active: 25.1 µM,–
COc1cc(/C=C/[N+](=O)[O-])ccc1O,"inconclusive: 15.8 µM [inhibitor, partial curve]",–
COc1cccc(C(=O)C2CCCN(Cc3ccccn3)C2)c1 (centres undefined),–,inactive: -7.77%
O=C1NC(=O)C(=Cc2csc3ccccc23)C(=O)N1,"inconclusive: 0.199 µM [inhibitor, full curve, poor fit]",–
CCOc1cc(C=C2C(=O)NC(=O)NC2=O)ccc1OS(=O)(=O)c1ccccc1,"inconclusive: 12.6 µM [inhibitor, partial curve]",–
Cc1ccccc1N1CCN(S(=O)(=O)c2nnc(NC(=O)c3ccc(Cl)cc3)s2)CC1,"inconclusive: 4.47 µM [inhibitor, partial curve]",–
COc1ccccc1OCC#CCN1CCOCC1,–,inactive: -3.57%
CC(Cc1ccc(OCC(=O)O)cc1)NCC(O)c1cccc(Cl)c1 (centres undefined),inactive,–
CCCCn1c(NC(=O)c2ccco2)c(C(=O)OCC)c2nc3ccccc3nc21,active: 12.6 µM,–
CN1CCN(c2cccc3c2C(=O)c2ccccc2C3=O)CC1,"inconclusive: 14.1 µM [inhibitor, partial curve]",–

SMILES,Potency,"activity, negative = inhibition"
Cc1[nH]n(-c2ccccc2)c(=O)c1C(c1ccc([N+](=O)[O-])cc1)c1c(C)[nH]n(-c2ccccc2)c1=O,–,inactive: -7.49%
Cc1ccc(-c2nn(Cc3ccccc3)cc2C=O)cc1,–,inactive: -1.3%
Cc1cccc(N2CCc3c2nc2ccccc2c3N)c1,"inconclusive: 35.5 µM [inhibitor, single point] and inconclusive: 15.8 µM [inhibitor, partial curve, poor fit]",–
CC1=CC(=O)c2c(O)cccc2C1=O,active: 562 nM and active: 2.51 µM,–
CN1C(=O)C(=Cc2sc(=O)n(-c3ccccc3)c2N(C)C)C(=O)N(C)C1=O,"inconclusive: 25.1 µM [inhibitor, partial curve]",–
CCC1CN2CCC1CC2C(Oc1cc2ccccc2c2ccccc12)c1ccnc2ccc(O)cc12 (centres undefined),"inconclusive: 0.158 µM [inhibitor, single point]",–
COc1cc2c(cc1OC)-c1c(OC)c(OC)c(OC)c3ccnc(c13)C2=O,active: 10 µM,–
Nc1ccc2c(c1)Cc1ccccc1-2,"inconclusive: 20 µM [inhibitor, partial curve]",–
COC(=O)/C(C)=C\CC12OC(C)(C)C3CC(C=C4C(=O)c5c(OC)c6c(c(CC=C(C)C)c5OC431)OC(C)(CCC=C(C)C)C=C6)C2=O (centres undefined),active: 28.2 µM,–
c1ccc(N2CCN(c3ncnc4c3nc3n4CCCCC3)CC2)cc1,"inconclusive: 20 µM [inhibitor, partial curve]",–
COP(N)(=O)SC (centres undefined),–,inactive: -0.122%
Fc1ccccc1N1CCN(Cc2ccc3c(c2)OCO3)CC1,–,inactive: -6.02%
CC(Oc1ccc(Cl)cc1Cl)C(=O)Nc1ccc(S(=O)(=O)Nc2cnc3ccccc3n2)cc1 (centres undefined),"inconclusive: 28.2 µM [inhibitor, single point]",–
COc1ccc2c(c1)CC1(CN2C)C(=O)NC(=O)N(CCc2ccccc2)C1=O (centres undefined),"inconclusive: 22.4 µM [inhibitor, partial curve]",–
O=c1[nH]c(CN2CC=C(c3ccccc3)CC2)nc2cc(C(F)(F)F)ccc12,"inconclusive: 31.6 µM [inhibitor, partial curve]",–
CCN(CC)CCO[C@H]1CC[C@@]2(C)C(=CC[C@@H]3[C@H]2CC[C@]2(C)C(=O)CC[C@H]32)C1,–,inactive: -12.7%
COc1cc(C(c2c(O)c3ccccc3oc2=O)c2c(C)n(C)n(-c3ccccc3)c2=O)ccc1O (centres undefined),"inconclusive: 11.2 µM [inhibitor, partial curve] and inconclusive: 15.8 µM [inhibitor, partial curve]",–
COc1ccc(CN2CCN(c3ncnc4sc5c(c34)CCCC5)CC2)cc1F,"inconclusive: 25.1 µM [inhibitor, single point]",–
CCOc1ccc(OCC)c(NC(=O)CN2CCN(c3ccc(C)cc3C)CC2)c1,"inconclusive: 20 µM [inhibitor, partial curve]",–
Clc1ccc(C2CC3CCC2N3)cn1 (centres undefined),inactive,–
CN1CCC(n2nccc2N)CC1,–,inactive: -7.43%
COc1ccc(CN2C(=O)NC(=O)/C(=C\c3ccco3)C2=O)cc1,"inconclusive: 12.6 µM [inhibitor, partial curve]",–

SMILES,Potency,"activity, negative = inhibition"
COc1cc(N)ccc1Cc1ccc(N)cc1OC,"inconclusive: 15.8 µM [inhibitor, partial curve]",–
CN(C)CC1Oc2ccccc2OC1(O)c1ccccc1 (centres undefined),"inconclusive: 10 µM [inhibitor, partial curve]",–
CN(C(=O)CN1CC=C(c2ccccc2)CC1)c1c(N)n(Cc2ccccc2)c(=O)[nH]c1=O,"inconclusive: 14.1 µM [inhibitor, single point]",–
Nc1ccc(N=Nc2ccccc2)cc1,"inconclusive: 25.1 µM [inhibitor, partial curve]",–
Nc1c(C(=O)Nc2ccc(Cl)cc2)sc2nc3c(cc12)N1CCC3CC1,"inconclusive: 2.24 µM [inhibitor, full curve, poor fit]",–
CN(CC(=O)Nc1ccccc1-c1ccccc1)C1CCCCC1,"inconclusive: 39.8 µM [inhibitor, single point]",–
CC1CN(O)C2CCc3nonc3C12O (centres undefined),"inconclusive: 39.8 µM [inhibitor, single point]",–
Cn1cc(/C=C/c2nc3ccccc3c(=O)n2-c2ccccc2)c2ccccc21,"inconclusive: 15.8 µM [inhibitor, partial curve, poor fit]",–
Cc1ccc(Cn2nnnc2CN2CCC(n3nnc4cc(C(F)(F)F)ccc43)CC2)cc1,"inconclusive: 10 µM [inhibitor, partial curve, poor fit]",–
O=C1NC(=O)N(CCNc2ncc(C(F)(F)F)cc2Cl)C(=O)C1Cc1ccc(Cl)cc1 (centres undefined),"inconclusive: 25.1 µM [inhibitor, single point]",–
CCCCN1C(=O)/C(=C\c2ccco2)C(=O)N(CCc2ccccc2)C1=O,"inconclusive: 20 µM [inhibitor, partial curve]",–
COc1cc(CC(=O)OCC2=C[C@H]3[C@@H]4C(C)(C)[C@]4(OC(C)=O)[C@H](OC(=O)Cc4ccccc4)[C@@H](C)[C@]3(O)[C@@H]3C=C(C)C(=O)[C@@]3(O)C2)ccc1O,"inconclusive: 11.2 µM [inhibitor, partial curve]",–
CC(C)CC1C(=O)N2CCCC2C2(O)O[C@@](NC(=O)C3C=C4c5cccc6[nH]c(Br)c(c56)CC4N(C)C3)(C(C)C)C(=O)N12 (some centres undefined),"inconclusive: 10 µM [inhibitor, partial curve]",–
CCOC(=O)N1CCN(c2ncc3c(n2)CC(c2ccccc2O)CC3=O)CC1 (centres undefined),"inconclusive: 3.55 µM [inhibitor, full curve]",–
O=C1/C(=C\c2ccc([N+](=O)[O-])cc2)N2CCC1CC2,"inconclusive: 11.2 µM [inhibitor, partial curve]",–
CCOC(=O)[C@@]1(C#N)[C@@H]2C=CC(C(N)=O)=CN2[C@@H](C(N)=O)[C@@H]1c1cccc(Cl)c1,"inconclusive: 12.6 µM [inhibitor, partial curve, poor fit]",–
CCN(CCCNS(=O)(=O)c1ccc2c(c1)oc(=O)n2C)c1cccc(C)c1,"inconclusive: 39.8 µM [inhibitor, single point]",–
CCOC(=O)c1c(-c2ccc(OC)cc2)oc2ccc(OC(=O)N(C)C)cc12,"inconclusive: 10 µM [inhibitor, partial curve]",–
Cc1ccsc1/C=N/NC(=O)c1cccc(S(=O)(=O)Nc2ccccc2Cl)c1,"inconclusive: 14.1 µM [inhibitor, partial curve]",–
N#C/C(=C(/O)c1ccc(S(=O)(=O)N(CCCl)CCCl)cc1)c1nc2ccccc2[nH]1,–,inactive: -1.62%

# — PubChem BioAssay AID1460 (National Center for Advancing Translational Sciences (NCATS), 2008)
